Source: the supplement of paper PMC10126150
Sequences with one replicate were seen in a single cluster, so their values are uncertain.

Tested on: ATP
Experiment: switch fluorescence ratio, 500 uM ATP over buffer (Cy3 cluster intensity, sum of 5 cycles each) (fold (ratio)); higher = stronger signal-on switching upon ATP binding; sequences stand for … in TCGTCGGCAGCGTCAGATGTGTATAAGAGACAGTTTTTTTTTTTTTTTTTTTTTTTTT…TC
Conditions: aptamer strand: ATP DNA aptamer (quencher-CACCTGGGGGAGTATTGCGGAGGAAGG + anchor), 100 nM annealed; ATP concentration: 500 uM; one replicate
How it was run: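 For every switch-domain sequence, the fluorescence ratio is the mean of per-cluster values, each being summed target-cycle Cy3 intensity over summed buffer-cycle Cy3 intensity. Clusters outside 100-1000 RFU were excluded. On a modified Illumina MiSeq flow-cell, the Cy3-labelled switching-strand clusters were annealed to 100 nM quencher-labelled ATP aptamer, imaged in selection buffer and then after 15 min with 500 uM ATP at 22 °C. Five such cycles were run, with NaOH stripping and re-annealing between them.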
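Also: ATP exposure 15 min at 22 °C before imaging.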

## ATAGAGTG
  switch fluorescence ratio: 1.02

## ACCCATAGGT
  switch fluorescence ratio: 0.987

## GAAATCAGTT
  switch fluorescence ratio: 0.95

## TACTGACTCG
  switch fluorescence ratio: 1.07

## TTGAGAACG
  switch fluorescence ratio: 1.01

## TCCGGCCAAA
  switch fluorescence ratio: 1.29

## AACATTTGCT
  switch fluorescence ratio: 1.04

## CATGGGAATC
  switch fluorescence ratio: 1.08

## TCTTACTTTT
  switch fluorescence ratio: 1.01

## ACTAGCAGTT
  switch fluorescence ratio: 1.01

## ACAAGCTTTG
  switch fluorescence ratio: 0.994

## TACAATAGCT
  switch fluorescence ratio: 1.06

## GCCGGTACCG
  switch fluorescence ratio: 0.999

## GATTTCTTGA
  switch fluorescence ratio: 1.01

## ATCCCCTAGG
  switch fluorescence ratio: 4.3

## GACCTAAGGC
  switch fluorescence ratio: 0.998

## CCCCTTTCTC
  switch fluorescence ratio: 1.35

## GACATGACAT
  switch fluorescence ratio: 1.01

## CGTTGGAACT
  switch fluorescence ratio: 1.01

## CGAACCAGCC
  switch fluorescence ratio: 1.73

## ACCATTGTTT
  switch fluorescence ratio: 0.998

## TCCTATCTG
  switch fluorescence ratio: 1.8

## TGTCTTCCGC
  switch fluorescence ratio: 1.2

## GCCGGAAGCT
  switch fluorescence ratio: 0.984

## TGGTCTGGAT
  switch fluorescence ratio: 0.965

## TATTTTATAG
  switch fluorescence ratio: 1.04

## AAAGTTACGA
  switch fluorescence ratio: 1.02

## GAACGTAGGA
  switch fluorescence ratio: 1.02

## AGCGGTGTC
  switch fluorescence ratio: 1.05

## TACCGACAGC
  switch fluorescence ratio: 1.5

## GTTGTTATG
  switch fluorescence ratio: 0.997

## TACACAGGT
  switch fluorescence ratio: 1.25

## TACCGCATAG
  switch fluorescence ratio: 6.23

## GTTACGTCCC
  switch fluorescence ratio: 1.06

## CAGGTTGAAT
  switch fluorescence ratio: 1.01

## TTGCGAAGAA
  switch fluorescence ratio: 1.01

## GGTCCTCGTA
  switch fluorescence ratio: 0.946

## TGCTAGCTCA
  switch fluorescence ratio: 1.07

## GTAAGGGCCT
  switch fluorescence ratio: 1.04

## AAAAGAGATA
  switch fluorescence ratio: 0.969

## AAATGGGTCG
  switch fluorescence ratio: 0.961

## CTAACAGTAC
  switch fluorescence ratio: 1.6

## CAAATAGCGA
  switch fluorescence ratio: 1.08

## ACCAGATCAA
  switch fluorescence ratio: 1.06

## GAGTAGTTGC
  switch fluorescence ratio: 1.06

## AGCTGGTGCT
  switch fluorescence ratio: 1

## TGATTCATTT
  switch fluorescence ratio: 0.979

## TAAATATTTG
  switch fluorescence ratio: 1.02

## GACCTCTTAA
  switch fluorescence ratio: 0.986

## TCTCGCCCAT
  switch fluorescence ratio: 1.07

## CGAGCTTAGT
  switch fluorescence ratio: 1.01

## CAGGGATTA
  switch fluorescence ratio: 1.04

## ATGGTGCGAG
  switch fluorescence ratio: 0.988

## TCCGTGTGC
  switch fluorescence ratio: 1.54

## CGAATTGAGA
  switch fluorescence ratio: 1.01

## GCATTGGACG
  switch fluorescence ratio: 1.03

## TGGGGCCTAG
  switch fluorescence ratio: 1.01

## CAGGATCCAT
  switch fluorescence ratio: 0.963

## AAAGCAGACG
  switch fluorescence ratio: 0.918

## GTGTTCCTGG
  switch fluorescence ratio: 1

## GACCATTTCA
  switch fluorescence ratio: 1.01

## TTGCAGATGC
  switch fluorescence ratio: 1.07

## CAGACGTTAC
  switch fluorescence ratio: 3.28

## GACAGTGATC
  switch fluorescence ratio: 1.1

## CGCGCACGAC
  switch fluorescence ratio: 4.32

## TGAGCGAAGA
  switch fluorescence ratio: 1.02

## TCAACAATTG
  switch fluorescence ratio: 1.01

## GGGTCAGCTC
  switch fluorescence ratio: 0.995

## ATGCGGTTTG
  switch fluorescence ratio: 0.994

## TCAAATTAAT
  switch fluorescence ratio: 0.993

## TTTATCACGC
  switch fluorescence ratio: 1.06

## ACCCTATTAG
  switch fluorescence ratio: 1.04

## GATCTGGATC
  switch fluorescence ratio: 1.01

## CTACCTTTTT
  switch fluorescence ratio: 0.983

## GACGCCTCGC
  switch fluorescence ratio: 1.15

## TAGAGCGAGA
  switch fluorescence ratio: 0.992

## ATTCCGGGCA
  switch fluorescence ratio: 1.5

## ACAGAGCGGT
  switch fluorescence ratio: 1.13

## GGCGCAGCT
  switch fluorescence ratio: 1.03

## CGGGCGCGCA
  switch fluorescence ratio: 0.977

## AGTGTTCGGA
  switch fluorescence ratio: 1.03

## CGGGCCCGGT
  switch fluorescence ratio: 1.05

## GAGTGCTCAC
  switch fluorescence ratio: 1.05

## TTGCCCACAC
  switch fluorescence ratio: 1.03

## GCGAAGGAAA
  switch fluorescence ratio: 1.05

## GATGCTATCG
  switch fluorescence ratio: 0.948

## CCCTCTGTGC
  switch fluorescence ratio: 2.3

## CGAGATTTGG
  switch fluorescence ratio: 0.963

## AATTACATGT
  switch fluorescence ratio: 1.03

## GGCCCGTATT
  switch fluorescence ratio: 0.981

## TGAGTAAGCC
  switch fluorescence ratio: 1.02

## GACTTGATAG
  switch fluorescence ratio: 0.981

## GTCATGTGCA
  switch fluorescence ratio: 1

## TTACTGGTGC
  switch fluorescence ratio: 1.16

## GACAGGTGGT
  switch fluorescence ratio: 1.27

## AAAAATGA
  switch fluorescence ratio: 1.05

## GGCGAACATC
  switch fluorescence ratio: 1

## GGAGGTGTCG
  switch fluorescence ratio: 1.1

## ATTCTTGATT
  switch fluorescence ratio: 0.991

## TGCCTGTGGT
  switch fluorescence ratio: 0.96

## TGGATGCATA
  switch fluorescence ratio: 0.99

## GCTGTGAGAG
  switch fluorescence ratio: 1.02

## ATTTGGGAA
  switch fluorescence ratio: 0.981

## CAATACGCAT
  switch fluorescence ratio: 2.22

## TTCGGACTC
  switch fluorescence ratio: 1.59

## ATAGCGTACC
  switch fluorescence ratio: 1.29

## AGCTTGGATT
  switch fluorescence ratio: 1

## ATATACCTTT
  switch fluorescence ratio: 1.02

## GCCGACTTTT
  switch fluorescence ratio: 1.02

## ATTACGGGTA
  switch fluorescence ratio: 1.03

## CGTGTTGGTG
  switch fluorescence ratio: 1.04

## AAGTGCGTTA
  switch fluorescence ratio: 0.95

## TTTATTAGGT
  switch fluorescence ratio: 1.02

## TGGGGCGATG
  switch fluorescence ratio: 0.943

## TGCTAAGTGG
  switch fluorescence ratio: 0.962

## ACACGTGGAA
  switch fluorescence ratio: 1

## CGCAGGCGTG
  switch fluorescence ratio: 1.03

## ATGCGGATTA
  switch fluorescence ratio: 0.994

## GTTGTTATGA
  switch fluorescence ratio: 1.02

## CATTTTACGT
  switch fluorescence ratio: 1.03

## AAGAATGCGC
  switch fluorescence ratio: 0.961

## TTTCGAGTCC
  switch fluorescence ratio: 1.07

## CTTTGACCTC
  switch fluorescence ratio: 1.04

## CGGCGTCTTT
  switch fluorescence ratio: 0.989

## TCGCGTGTGA
  switch fluorescence ratio: 1

## CCAGCGTCAG
  switch fluorescence ratio: 0.982

## TATTTTTAG
  switch fluorescence ratio: 0.991

## ATGGATCCA
  switch fluorescence ratio: 0.994

## ATATGACCCT
  switch fluorescence ratio: 1.07

## CACTATGCTT
  switch fluorescence ratio: 0.996

## GCCGACCGTC
  switch fluorescence ratio: 1.1

## CCAGTTAGGG
  switch fluorescence ratio: 1.07

## CATTGCGTGC
  switch fluorescence ratio: 1.07

## GGCAGTTAGT
  switch fluorescence ratio: 1.01

## GAACTCTTGG
  switch fluorescence ratio: 1.01

## GGCCGTAAAT
  switch fluorescence ratio: 1.01

## GTTATAG
  switch fluorescence ratio: 1.07

## TGACGGCTGA
  switch fluorescence ratio: 1.04

## CGGCAGTTGT
  switch fluorescence ratio: 1.05

## CTTGCGCCG
  switch fluorescence ratio: 1.02

## CGAACCATTA
  switch fluorescence ratio: 1.04

## TCTCACGTTA
  switch fluorescence ratio: 1.3

## TGTGGATATC
  switch fluorescence ratio: 0.946

## CAAAACAGCA
  switch fluorescence ratio: 0.965

## CTCTAGGCAG
  switch fluorescence ratio: 1.09

## CCACGGAGAC
  switch fluorescence ratio: 2.71

## TAGGCCAGAC
  switch fluorescence ratio: 1.1

## TATCAAGGCA
  switch fluorescence ratio: 0.952

## TGACGAGCCG
  switch fluorescence ratio: 1.03

## AGCTAGCGA
  switch fluorescence ratio: 1.02

## TAGCCTAACT
  switch fluorescence ratio: 0.986

## TTGGGGCTAT
  switch fluorescence ratio: 2.28

## CAGGTAACTT
  switch fluorescence ratio: 1.01

## GTTTTAACGA
  switch fluorescence ratio: 0.966

## AGTGGAACGC
  switch fluorescence ratio: 0.997

## TGCCGGCAGG
  switch fluorescence ratio: 1.07

## ATGATACGAG
  switch fluorescence ratio: 1.03
